# Reference: the supplement of paper PMC3334620
# Whole data set: some 33,000 sequences, median “E-score (-0.5 to 0.5)” near -0.035, cut for the highest 2% near 0.35. The list shows a part of the results.
# Target: T1, Pdr3 (UniProt P33200)
# T1 sequence: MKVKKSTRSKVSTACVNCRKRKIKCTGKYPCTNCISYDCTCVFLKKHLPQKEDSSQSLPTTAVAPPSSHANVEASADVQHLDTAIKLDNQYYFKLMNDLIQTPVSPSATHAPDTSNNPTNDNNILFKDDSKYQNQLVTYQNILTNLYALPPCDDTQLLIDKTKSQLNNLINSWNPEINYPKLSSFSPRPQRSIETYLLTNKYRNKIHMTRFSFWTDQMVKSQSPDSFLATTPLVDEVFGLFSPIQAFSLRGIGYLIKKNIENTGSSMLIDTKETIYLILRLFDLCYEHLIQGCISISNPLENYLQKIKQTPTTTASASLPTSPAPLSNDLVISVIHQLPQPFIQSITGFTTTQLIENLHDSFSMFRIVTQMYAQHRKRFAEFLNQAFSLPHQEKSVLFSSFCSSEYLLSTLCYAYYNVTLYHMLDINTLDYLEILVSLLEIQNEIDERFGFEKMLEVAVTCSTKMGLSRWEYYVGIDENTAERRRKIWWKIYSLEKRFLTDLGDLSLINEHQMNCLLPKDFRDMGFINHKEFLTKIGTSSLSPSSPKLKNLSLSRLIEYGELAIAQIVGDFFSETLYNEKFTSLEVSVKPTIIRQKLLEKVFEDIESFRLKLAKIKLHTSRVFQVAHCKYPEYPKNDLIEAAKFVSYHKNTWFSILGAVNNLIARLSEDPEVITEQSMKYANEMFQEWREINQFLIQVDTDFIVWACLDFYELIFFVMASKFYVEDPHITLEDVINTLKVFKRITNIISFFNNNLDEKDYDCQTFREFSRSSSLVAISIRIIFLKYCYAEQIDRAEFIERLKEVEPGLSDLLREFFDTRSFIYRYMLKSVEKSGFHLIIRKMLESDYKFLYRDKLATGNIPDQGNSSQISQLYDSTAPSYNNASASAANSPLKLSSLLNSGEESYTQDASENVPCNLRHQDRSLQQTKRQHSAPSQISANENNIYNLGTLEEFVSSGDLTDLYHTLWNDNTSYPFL
# Assay: PBM E-score (8-mer binding enrichment) (E-score (-0.5 to 0.5)); higher = stronger / more preferred TF binding; most listed sequences are background and not binding sites
# Details: protein concentration: 200 nM; construct: GST-full length
# In short: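 For each ungapped eight-base word taken together with its reverse complement, the Universal PBM Analysis Suite assigned an E-score. Binding data came from GST-tagged yeast transcription factors, applied at about 100-200 nM, on universal all-10-mer Agilent arrays made double-stranded by primer extension. Fluorescent anti-GST marked bound protein, and scans were normalised with masliner.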
row,Sequence,PBM E-score
1,CCATCCTC,0.111
2,AGTCCTGG,-0.288
3,AACTTTGA,-0.052
4,AGGAAAGA,-0.167
5,ACCCGTCG,0.186
6,CGCATCTC,0.0914
7,AGCACTCG,0.11
8,ACAGGTTG,-0.234
9,CCGTTTCA,0.199
10,GATTGGAA,0.0613
11,AAGTCATA,-0.0502
12,GATACTAA,0.197
13,GTCTCACA,0.00648
14,AGAGGGGA,-0.0845
15,AACCGGCG,0.306
16,GCAACCGC,0.0454
17,ATGGAAAG,0.0226
18,ACGCAAGA,0.0149
19,CTCTACGA,-0.266
20,TACATAGA,-0.116
21,AGCCTCCG,0.239
22,CCACGCTA,-0.156
23,CAGTGTCA,-0.0376
24,ACGATTCA,-0.116
25,AGGGTAAT,0.111

row,Sequence,PBM E-score
1,GGCCGACC,0.184
2,TATGCAAA,-0.342
3,AAATGCTA,-0.0642
4,AGAATATA,-0.229
5,AACGGGCA,-0.0251
6,AATGCATC,-0.149
7,TCCTCAAA,-0.253
8,CGCTCCCC,-0.155
9,CAGCTTGA,-0.0629
10,AGTCTAAG,0.0279
11,GCAGTTCC,0.265
12,AGTACATA,-0.0137
13,ATTCTCAA,-0.161
14,AGGTTAAA,-0.0444
15,CGAGGGCG,0.00307
16,ACACAGAC,-0.121
17,ATATATGG,0.0752
18,ACCATATC,0.125
19,AAAAAGCT,-0.119
20,CTCACTAC,-0.0293
21,AATTAGAG,-0.0202
22,CCTCGTCA,-0.0433
23,ACTCAGTG,-0.212
24,CTAGTTGA,-0.0407
25,CCCTGTAA,-0.139

row,Sequence,PBM E-score
1,CTCAACTA,-0.0622
2,AGGGTCAG,-0.345
3,AGACAGAC,0.138
4,GTAGACTA,-0.303
5,ATATAGAA,-0.00385
6,GAACGAAC,-0.0191
7,AAAGTCCA,-0.0765
8,AGCCTGGA,-0.118
9,AATCCCTA,-0.148
10,AGGGCTAG,-0.274
11,ACTATCCT,-0.0465
12,ACCCCGAC,0.178
13,CGGGCTAA,0.179
14,TAATAGAA,-0.0443
15,AGTCGAGG,-0.0618
16,ACTTACCA,-0.0984
17,CCTTGGGA,-0.0582
18,ATGACTGG,-0.165
19,CCGTCCCG,0.371
20,GAGCTATC,-0.129
21,CCTTATGC,-0.136
22,GCGGCGGA,0.404
23,TGCATTAA,-0.0594
24,TCTTACCA,-0.145
25,AGGGACGA,0.107

row,Sequence,PBM E-score
1,CAAGTAGA,-0.0308
2,CCGGCAAC,0.303
3,CTAGGAAA,-0.168
4,CGTCACCC,0.0801
5,CATAGCGA,-0.134
6,GTCCCTGA,-0.23
7,AGGTGGGG,-0.0698
8,CACAGTTC,0.185
9,CACTTTCG,0.0283
10,AAAATGGC,0.0732
11,GAGATGGC,0.157
12,GTCCAGAA,-0.00311
13,ATGTCGCA,0.0362
14,CAGAGGGA,-0.142
15,CGGAACAC,0.483
16,AGTCGTTG,-0.279
17,ATACGCGC,0.0551
18,AAGAAGAA,0.103
19,GCGATATA,0.0343
20,CAGGGGGG,-0.335
21,AGCTATTG,-0.0946
22,CCTACCGC,-0.0338
23,AGGTGTTC,-0.213
24,ACTTATCA,0.00828
25,ATAAGGGG,-0.014

row,Sequence,PBM E-score
1,TAGACACA,-0.238
2,AGTTGTCA,0.064
3,TCTATCCA,-0.103
4,ACTTCCTG,-0.121
5,GAATCAAA,0.0557
6,ATACTTAC,-0.00577
7,CGATGCAG,0.0208
8,TAATGCCA,0.0964
9,GCCTCAAC,-0.0751
10,TGCTGTAA,-0.218
11,AACCTGAA,-0.247
12,CATGGCAA,-0.0906
13,GCCGAACA,0.159
14,TTCAACAA,0.0248
15,CCAACTAG,-0.163
16,ACACAGGG,0.0204
17,GGGCTTGA,-0.211
18,CCAATTGC,-0.0711
19,CCCGAATA,0.14
20,AAGTAGAC,-0.201
21,AAATTATT,0.155
22,AAAGTTCA,0.0299
23,ACTTTACG,-0.0232
24,TGCCAAAA,-0.032
25,CGTGGGAA,-0.115

row,Sequence,PBM E-score
1,GTATTAAC,0.0325
2,GATAGAGC,-0.0951
3,GGGGATCA,-0.147
4,CAAAGCAC,-0.124
5,CTGTCTTC,0.00869
6,ACTTCGGG,0.146
7,AAAGTCCC,0.0137
8,ACCTTGCT,-0.116
9,ATATGGAT,0.0193
10,TAGCGGAA,0.357
11,ATCCACTG,-0.0362
12,ACAGCTAG,-0.113
13,CGGCACGC,0.12
14,AAAGAGGT,-0.11
15,ACCACTAT,-0.16
16,AAGGGATT,-0.172
17,ACTGAGGA,-0.0499
18,ACCCAGCG,-0.0803
19,ATTTAGCC,0.0178
20,CCATTTAC,0.0475
21,TGCATGAA,0.132
22,CCACTAAC,-0.287
23,CACCGTCG,0.0908
24,AGCAGATA,-0.0298
25,CTTGCATA,-0.164

row,Sequence,PBM E-score
1,ATTTTGAA,0.0256
2,GACTCAAC,-0.136
3,ATTTACGG,0.249
4,GATACAAC,0.0754
5,CTCTGGTA,-0.214
6,AGCCGTGG,0.124
7,ACAAGGTG,-0.125
8,GACGAGGA,-0.173
9,TATCGCGA,0.258
10,ACCAACTG,-0.0243
11,AGATCGTC,-0.165
12,CATAGTGG,-0.0584
13,AGAAGCAG,-0.174
14,GGCGATAA,0.109
15,CACATCCC,0.097
16,ATGATGAA,0.146
17,AGGCCGAA,0.034
18,GACATTAC,-0.00492
19,GCCGTAGC,0.0133
20,CGTCAGAG,-0.133
21,GTGTTACA,-0.197
22,GACGACAA,0.145
23,AAACGCTA,-0.252
24,AGGCGATA,-0.0322
25,ACTGTGCT,-0.0381

row,Sequence,PBM E-score
1,ACCCGAGA,0.258
2,AGACCCGG,0.285
3,CGGTGAGA,0.109
4,CAATACAC,-0.192
5,GGGCCTAC,-0.199
6,CACTGGCG,-0.0992
7,ATGTCCCG,0.351
8,GCACCACC,0.0118
9,CCTACAAA,-0.106
10,CGGAGACC,0.332
11,CTGACAGA,-0.102
12,TATCAATA,-0.104
13,AACCACAC,0.0755
14,ATTGGAAA,-0.161
15,AGTAAAAT,-0.11
16,GCCTAACA,-0.0997
17,GTACCTTA,-0.00786
18,CAATGCAA,-0.135
19,AGCCGCCA,0.00307
20,TCACGGAA,0.464
21,AAGCATCC,0.156
22,CGGGCTCA,-0.0278
23,CTATTAAG,-0.308
24,GCACACAA,-0.0438
25,AAGTGTCA,-0.259

row,Sequence,PBM E-score
1,GCTCGTAA,-0.045
2,GCCACTAA,-0.167
3,ACTCGGCA,0.263
4,ATGATACC,0.108
5,AACGCTGC,-0.221
6,CAAATGTG,0.11
7,AGGGAGAT,-0.193
8,AAGTGAAC,-0.0909
9,GTGCTCCA,-0.226
10,ACAAAAGC,-0.105
11,CCGTACCC,0.131
12,CGCCGCCA,0.142
13,AAAACCTA,-0.158
14,GTTTAATA,0.0237
15,AAGCCGAA,0.196
16,ACTGACTA,-0.231
17,ACCTCTAT,-0.0654
18,AATCCAAG,-0.0532
19,TCCGGACA,0.447
